Patent US9677112B2 (priority 2012, dated 2017)
Several values for one entry are separate records, joined by “and”; a condition that tells them apart may be missing. Identical values can stand only once. Like-named read-outs stand apart in the source and are kept apart here.

Assays:
[1] = target: TEM-1 Bla (Escherichia coli, UniProt P62593); conditions: for Km: read-out: TEM-1 Bla Km, PBS buffer (1x, pH = 7.4), 22° C.
Text: The kinetic parameters of fluorescent probes BlaC and TEM-1 Bla, including catalytic constant kcat and Michaelis constant Km, are obtained from Linweaver-Burk plots (FIGS. 7A-7C) and summarized in Table 1.
All chemicals were purchased from commercial sources (e.g., Aldrich, Fluka, ANASPEC, and Novabiochem). 7-Amino-3-chloromethyl 3-cephem-4-carboxylic acid diphenylmethyl ester hydrochloride (ACLH) was obtained from Otsuka Chemical Co., Ltd. The purified TEM-1 β-lactamase was customarily prepared by the Biologics Process Development, Inc. (San Diego, Calif.). Analytical TLC was performed with 0.25 mm silica gel 60F plates with fluorescent indicator (254 nm). Plates were visualized by ultraviolet light. ^1H and ^13C NMR spectra were taken on Varian 300 MHz or 400 MHz magnetic resonance spectrometer. Data for ^1H NMR spectra are reported as chemical shifts reported as δ in units of parts per million (ppm) relative to chloroform-d (δ 7.26, s); multiplicities are reported as s (singlet), d (doublet), t (triplet), q (quartet), dd (doublet of doublets), m (multiplet), or br (broadened); coupling constants are reported as a J value in Hertz (Hz); the number of protons (n) for a given resonance is indicated nH, and based on the spectral integration values.
The following procedure was used for determining the hydrolytic kinetics of the probes by beta-lactamase. To a series of different concentrations of the probe (20, 40, 60, 80, 100, 120, 150 μM) in 1× phosphate-buffered saline (PBS, pH 7.4; 100 μL) in a 96-well plate (black and flat bottom) was added TEM-1 Bla or BlaC in PBS. The fluorescence intensity at 454 nm was immediately measured in a microplate reader (excitation wavelength: 400 nm) over a 20-minute period at 25° C. The values of the kinetic parameters (Km and kcat) were determined from the double-reciprocal plot of the hydrolysis rate versus substrate concentration (Lineweaver-Burk plot). To determine the spontaneous hydrolysis rate of the probes, the fluorescence intensity was monitored over 5 days without the addition of the enzyme. The rate was calculated from the plot of ln([S]0/([S]0−[P])) versus time (FIG. 8C).

[2] = Spontaneous hydrolysis of probes in buffer; type: physicochemical; conditions: 22° C.
[3] = tested on: COc1ccc(-c2c3ccc(=O)cc-3oc3cc(OCc4ccc(OCC5=C(C(=O)O)N6C(=O)[C@@H](NC(=O)Cc7ccccc7)[C@H]6SC5)cc4)ccc23)c(C)c1; assay: purified protein, by the assay type; conditions: 22° C.
[4] = tested on: COc1ccc(-c2c3ccc(=O)cc-3oc3cc(OCc4ccc(OCC5=C(C(=O)O)N6C(=O)[C@](NC(=O)Cc7ccccc7)(OC)[C@H]6SC5)cc4)ccc23)c(C)c1; assay: purified protein, by the assay type; conditions: 22° C.
[5] = tested on: O=C(Cc1ccccc1)N[C@@H]1C(=O)N2C(C(=O)O)=C(COc3ccc4ccc(=O)oc4c3)C[S@+]([O-])[C@H]12; assay: purified protein, by the assay type; conditions: other: PBS buffer (1x, pH = 7.4), 22° C., pH 7.4
[6] = other: MES buffer (0.1M, pH 6.6), pH 6.6
[7] = other: PBS buffer (1x, pH = 7.4), pH 7.4

Sequence of TEM-1 Bla (P62593 24-286 limits assumed): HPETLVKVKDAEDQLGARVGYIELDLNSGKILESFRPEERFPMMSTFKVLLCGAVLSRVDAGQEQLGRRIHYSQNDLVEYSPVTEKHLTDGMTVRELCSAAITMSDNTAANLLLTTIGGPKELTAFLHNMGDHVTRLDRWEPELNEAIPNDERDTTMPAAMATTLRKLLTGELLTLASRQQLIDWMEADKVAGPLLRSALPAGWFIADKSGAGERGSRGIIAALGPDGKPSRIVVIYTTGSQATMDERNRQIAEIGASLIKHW

Row | Compound | TEM-1 Bla kcat [1] [s⁻¹] | Km [1] [µM] | Spontaneous Hydrolysis Rate ([2]; PBS buffer (1x, pH = 7.4)) | further results
1 | O=C(Cc1ccccc1)N[C@@H]1C(=O)N2C(C(=O)O)=C(COc3ccc4ccc(=O)oc4c3)CS[C@H]12 [CDC-1, (6R,7R)-8-Oxo-3-((2-oxo-2H-chromen-7-yloxy)methyl)-7-(2-phenylacetamido)-5-thia-1-azabicyclo[4.2.0]oct-2-ene-2-carboxylic acid] | 48 | 135 | 2e-07 s⁻¹ | 
2 | CO[C@@]1(NC(=O)Cc2ccccc2)C(=O)N2C(C(=O)O)=C(COc3ccc4ccc(=O)oc4c3)CS[C@@H]21 [CDC-OMe, (6R,7S)-7-Methoxy-8-oxo-3-((2-oxo-2H-chromen-7-yloxy)methyl)-7-(2-phenylacetamido)-5-thia-1-azabicyclo[4.2.0]oct-2-ene-2-carboxylic acid] | 0.00076 | 50 | 3.3e-07 s⁻¹ and 3e-07 s⁻¹ | 
3 | CO[C@@]1(NC(C)=O)C(=O)N2C(C(=O)O)=C(COc3ccc4ccc(=O)oc4c3)CS[C@@H]21 [CDC-5, (6R,7S)-7-Acetamido-7-methoxy-8-oxo-3-(((2-oxo-2H-chromen-7-yl)oxy)methyl)-5-thia-1-azabicyclo[4.2.0]oct-2-ene-2-carboxylic acid] |  |  | 3e-07 s⁻¹ | 
4 | CCN1CCN(C(=O)N[C@@H](C(=O)N[C@@H]2C(=O)N3C(C(=O)O)=C(COc4ccc5ccc(=O)oc5c4)CS[C@H]23)c2ccccc2)C(=O)C1=O [CDC-3, (6R,7R)-7-((R)-2-(4-Ethyl-2,3-dioxopiperazine-1-carboxamido)-2-phenylacetamido)-8-oxo-3-((2-oxo-2H-chromen-7-yloxy)methyl)-5-thia-1-azabicyclo[4.2.0]oct-2-ene-2-carboxylic acid] | 77 | 59 | 2e-07 s⁻¹ | 
5 | COc1ccc(-c2c3ccc(=O)cc-3oc3cc(OCc4ccc(OCC5=C(C(=O)O)N6C(=O)[C@@H](NC(=O)Cc7ccccc7)[C@H]6SC5)cc4)ccc23)c(C)c1 [CDG-1, (6R,7R)-3-((4-(((9-(4-Methoxy-2-methylphenyl)-3-oxo-3H-xanthen-6-yl)oxy)methyl)phenoxy)methyl)-8-oxo-7-(2-phenylacetamido)-5-thia-1-azabicyclo[4.2.0]oct-2-ene-2-carboxylic acid] |  |  | 3e-07 s⁻¹ | TEM-1 Bla kcat ([1]; pH 6.6): (5.2) s^−1; Spontaneous Hydrolysis Rate ([2]; MES buffer (0.1M, pH 6.6)): (6 × 10^−7)^c s^−1
6 | CCO[C@@]1(NC(=O)Cc2ccccc2)C(=O)N2C(C(=O)O)=C(COc3ccc4ccc(=O)oc4c3)CS[C@@H]21 [CDC-OEt, (6R,7S)-7-Ethoxy-8-oxo-3-((2-oxo-2H-chromen-7-yloxy)methyl)-7-(2-phenylacetamido)-5-thia-1-azabicyclo[4.2.0]oct-2-ene-2-carboxylic acid] |  |  | 2e-07 s⁻¹ | 
7 | CC(=O)N[C@@H]1C(=O)N2C(C(=O)O)=C(COc3ccc4ccc(=O)oc4c3)CS[C@H]12 [CDC-4, (6R,7R)-7-Acetamido-8-oxo-3-(((2-oxo-2H-chromen-7-yl)oxy)methyl)-5-thia-1-azabicyclo[4.2.0]oct-2-ene-2-carboxylic acid] | 10 | 133 | 2e-07 s⁻¹ | 
8 | O=C(Cc1ccccc1)N[C@@H]1C(=O)N2C(C(=O)O)=C(COc3ccc4ccc(=O)oc4c3)C[S@+]([O-])[C@H]12 [CDC-2, (5S,6R,7R)-8-Oxo-3-(((2-oxo-2H-chromen-7-yl)oxy)methyl)-7-(2-phenylacetamido)-5-thia-1-azabicyclo[4.2.0]oct-2-ene-2-carboxylic acid 5-oxide] |  |  | 1e-07 s⁻¹ | 
9 | TEM-1 Bla (Escherichia coli) |  |  |  | Km [3, 6]: (1.9) μM; kcat/Km [3, 6]: 2.7 × 10^6 s^−1M^−1; Km [3, 7]: 1.0 µM; kcat [3, 7]: 8.7 s⁻¹; kcat/Km [3, 7]: 8.7 × 10^6 s^−1M^−1; Km [4, 6]: (40) μM; Km [4, 7]: 30 µM; kcat [4, 7]: 0.0011 s⁻¹; kcat/Km [4, 7]: 37 s^−1M^−1; Km [5]: 454 µM; kcat [5]: 7 s⁻¹; kcat/Km [5]: 1.5 × 10^4 s^−1M^−1
10 | COc1ccc(-c2c3ccc(=O)cc-3oc3cc(OCc4ccc(OCC5=C(C(=O)O)N6C(=O)[C@](NC(=O)Cc7ccccc7)(OC)[C@H]6SC5)cc4)ccc23)c(C)c1 [CDG-OMe, (6R,7S)-7-Methoxy-3-((4-(((9-(4-methoxy-2-methylphenyl)-3-oxo-3H-xanthen-6-yl)oxy)methyl)phenoxy)methyl)-8-oxo-7-(2-phenylacetamido)-5-thia-1-azabicyclo[4.2.0]oct-2-ene-2-carboxylic acid] |  |  | 3e-07 s⁻¹ | TEM-1 Bla kcat ([1]; pH 6.6): (6.7 × 10^−4) s^−1; Spontaneous Hydrolysis Rate ([2]; MES buffer (0.1M, pH 6.6)): (2 × 10^−7)^c s^−1
